# In the supplement of paper PMC5919970:
# Counter-ions that a name gives are not always drawn. The full ranking holds about 2,000 compounds; the median of “fractional viability relative to vehicle” is about 0.91, and the lowest 2% start at about 0.045. Some of the results follow.
# System: TYKNU
# Test: fractional viability relative to vehicle; TYKNU is a high-grade serous ovarian cancer line; higher = less growth inhibition
# Conditions: 72 h
# How it was run: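 Drug treatment lasted 72 h, with cells grown at 37 °C in 5% CO2 in RPMI 1640 supplemented with 10% FBS. Beforehand, TYKNU control cells or their lentiCRISPRv2 knockout derivatives had been seeded at 500 cells per well into drug-stamped 384-well plates carrying a ~2100-compound library at 2 or 10 μM, in duplicate. Viability came from Cell Titer Glo luminescence, with averaged duplicate treatment wells normalised to duplicate control wells in the same plate position.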
# [1] = 2uM, genotype: DNM1L knockout (sgDNM1L #1)
# [2] = 2uM, genotype: sgCTRLA1 (non-targeting control)
# [3] = 10uM, genotype: DNM1L knockout (sgDNM1L #1)
# [4] = 10uM, genotype: sgCTRLA1 (non-targeting control)
SMILES,fractional viability [1],fractional viability [2],fractional viability [3],fractional viability [4]
OC(c1cc(C(F)(F)F)nc2c(C(F)(F)F)cccc12)C1CCCCN1 (stereo not given) [Mefloquine HCl],0.689,0.956,0.0537,0.0619
COc1ccc2c(c1)c(CC(=O)N1CCOCC1)c(C)n2C(=O)c1ccc(Cl)cc1,1.12,1.17,0.737,1.05
Cc1coc2c1C(=O)C(=O)c1c-2ccc2c1CCCC2(C)C [Tanshinone IIA],0.482,0.551,0.196,0.163
CCc1c(O)cc(O)c(C(=O)c2ccc(OCCN3CCOCC3)c(OC)c2)c1CC(=O)N(CCOC)CCOC,0.368,0.443,0.232,0.202
CNCCCC12CCC(c3ccccc31)c1ccccc12 [Maprotiline HCl],0.982,1.09,0.652,0.905
CC[C@H]1OC(=O)C[C@@H](O)[C@H](C)[C@@H](O[C@@H]2O[C@H](C)[C@@H](O)[C@H](N(C)C)[C@H]2O)[C@@H](CCN2C[C@H](C)C[C@H](C)C2)C[C@@H](C)C(=O)/C=C/C(C)=C/[C@@H]1CO[C@@H]1O[C@H](C)[C@@H](O)[C@@H](OC)[C@H]1OC [Tilmicosin],2.22,1.13,1.49,1.11
CC(=O)N[C@@H](CS)C(=O)O [Acetylcysteine],0.998,1.15,1,1.01
C[C@]1(c2nc3c(C(N)=O)cccc3[nH]2)CCCN1 [Veliparib (ABT-888)],0.94,0.993,0.951,1.06
O=C(O)Cc1cccc(OCCCN(Cc2cccc(C(F)(F)F)c2Cl)CC(c2ccccc2)c2ccccc2)c1,1.01,1.05,0.68,0.93
O=c1cc(-c2ccccc2)oc2cc(O)c(O)c(O)c12 [Baicalein],0.792,1.13,0.79,0.923
COc1cc(C2Oc3cc([C@H]4Oc5cc(O)cc(O)c5C(=O)[C@@H]4O)ccc3OC2CO)ccc1O (stereo not given in full) [Silymarin],0.966,1.09,0.874,1.09
COc1cc(C2Oc3cc([C@H]4Oc5cc(O)cc(O)c5C(=O)[C@@H]4O)ccc3OC2CO)ccc1O (stereo not given in full) [Silibinin],1.05,1.19,1.1,1.17
CCN(CC)CCOC(=O)c1ccc(N)cc1 [Procaine HCl],1.05,1.02,0.83,1.03
Clc1ccc(C(Cn2ccnc2)OCc2ccc(Sc3ccccc3)cc2)c(Cl)c1 (stereo not given) [Fenticonazole Nitrate],0.85,1,0.655,0.844
CC[C@H](C)C(=O)O[C@H]1C[C@@H](C)C=C2C=C[C@H](C)[C@H](CC[C@@H]3C[C@@H](O)CC(=O)O3)[C@H]21 [Lovastatin],0.56,0.759,0.314,0.316
COc1cccc2cc(-c3nc([C@H]4CC[C@H](C(=O)O)CC4)n4ncnc(N)c34)[nH]c12,0.38,0.519,0.186,0.233
O=C1CCC[C@@H]2[C@H]3CCC[N+]4([O-])CCC[C@@H](CN12)[C@@H]34 (stereo not given in full) [Oxymatrine],0.927,1.15,0.812,1.1
CC(C)n1c(/C=C/C(O)CC(O)CC(=O)O)c(-c2ccc(F)cc2)c2ccccc21 (stereo not given) [Fluvastatin Sodium],0.528,0.48,0.229,0.311

SMILES,fractional viability [1],fractional viability [2],fractional viability [3],fractional viability [4]
O=c1ccn([C@@H]2O[C@H](CO)[C@@H](O)[C@H]2O)c(=O)[nH]1 [Uridine],1.01,1.04,1.08,1.09
CCCCNc1cc(C(=O)O)cc(S(N)(=O)=O)c1Oc1ccccc1 [Bumetanide],0.935,1.12,0.918,1.09
C[C@H](Cn1cnc2c(N)ncnc21)OCP(=O)(O)O [Tenofovir],1.25,1.15,1.18,1.18
COC(=O)N[C@H](C(=O)N[C@@H](Cc1ccccc1)[C@@H](O)CN(Cc1ccc(-c2ccccn2)cc1)NC(=O)[C@@H](NC(=O)OC)C(C)(C)C)C(C)(C)C [Atazanavir Sulfate],0.914,1.08,0.914,1.06
CNC[C@H](O)[C@@H](O)[C@H](O)[C@H](O)CO [Meglumine],1.01,1.14,0.888,1.15
COC(=O)Nc1ccc(-c2nc(N3CCOCC3)c3cnn(C4CCN(C(=O)OC)CC4)c3n2)cc1,0.495,0.467,0.312,0.267
Cc1ccnc(NS(=O)(=O)c2ccc(N)cc2)n1 [Sulfamerazine],1.02,1.19,0.782,1.07
NC(=O)OCC(COC(N)=O)c1ccccc1 [Felbamate],1.21,1.23,0.944,1.21
CCC[S+]([O-])c1ccc2[nH]c(NC(=O)OC)nc2c1 (stereo not given) [Albendazole Oxide],1.04,0.909,0.505,0.562
C/C(=C\C(=O)OCCCCCCCCC(=O)O)C[C@@H]1OC[C@H](C[C@@H]2O[C@H]2[C@@H](C)[C@H](C)O)[C@@H](O)[C@H]1O [Mupirocin],1.13,1.18,0.546,0.417
COc1ccc(C2=N[C@@H](c3ccc(Cl)cc3)[C@@H](c3ccc(Cl)cc3)N2C(=O)N2CCNC(=O)C2)c(OC(C)C)c1 [Nutlin-3],0.557,0.851,0.272,0.386
COc1ccc(C2=N[C@@H](c3ccc(Cl)cc3)[C@@H](c3ccc(Cl)cc3)N2C(=O)N2CCNC(=O)C2)c(OC(C)C)c1 [Nutlin-3a],0.315,0.423,0.226,0.215
CN/C(=N\CCSCc1nc[nH]c1C)NC#N [Cimetidine],0.911,1.12,0.973,1.04
NC(=O)c1ccc(I)c([N+](=O)[O-])c1 [Iniparib (BSI-201)],1.03,1.03,0.998,1.07
O=C(O)c1cc(/N=N/c2ccc(S(=O)(=O)Nc3ccccn3)cc2)ccc1O [Sulfasalazine],0.895,1.17,0.854,1.06
CS(=O)(=O)c1ccc(-c2nnc(/C=C/c3nnc(-c4ccc(C#N)cc4)o3)n2-c2ccccc2Cl)nc1,0.928,1.16,0.693,0.769
c1coc(CNc2ncnc3[nH]cnc23)c1 [Kinetin],1.01,1.01,0.361,0.431
